Assay results: PubChem BioAssay AID1347165 (National Center for Advancing Translational Sciences (NCATS), 2019)
Where “and” joins values, the source holds several entries; their conditions need not be identical. Equal entries are not always repeated. The whole screen tested about 220,000 compounds, of which about 5,700 (2.6%) were called active. The inconclusive results got no clear call from the source; some entries with a clear call stand among them for comparison. Calls come from the whole dose curve; as a rule, active = well fitted inhibition curve with a large enough effect; inconclusive = small, poorly fitted or top-dose-only effect; inactive = no such curve, though single readings can be large or run the other way. A potency beside an inconclusive call is a rough fit, not a confirmed value.
Note: nearly all actives have a fitted effect of over 70% in size.
Potency is the fitted concentration of half-maximal effect; tags give direction and shape of the fitted curve.
Throughout, for activity change, negative = inhibition: 0% is about no effect.

These compounds were tested against Lysine-specific demethylase 5B (Homo sapiens) (UniProt Q9UGL1) (assay: Primary screen for KDM5B Histone Demethylases FDH-coupled qHTS). Conditions: FDH-coupled NADH fluorescence (FDH is formaldehyde dehydrogenase); activity change, negative = inhibition: at 57.7 µM (top of the series) unless noted.
UniProt Q9UGL1, sequence (Q9UGL1 whole entry, looked up): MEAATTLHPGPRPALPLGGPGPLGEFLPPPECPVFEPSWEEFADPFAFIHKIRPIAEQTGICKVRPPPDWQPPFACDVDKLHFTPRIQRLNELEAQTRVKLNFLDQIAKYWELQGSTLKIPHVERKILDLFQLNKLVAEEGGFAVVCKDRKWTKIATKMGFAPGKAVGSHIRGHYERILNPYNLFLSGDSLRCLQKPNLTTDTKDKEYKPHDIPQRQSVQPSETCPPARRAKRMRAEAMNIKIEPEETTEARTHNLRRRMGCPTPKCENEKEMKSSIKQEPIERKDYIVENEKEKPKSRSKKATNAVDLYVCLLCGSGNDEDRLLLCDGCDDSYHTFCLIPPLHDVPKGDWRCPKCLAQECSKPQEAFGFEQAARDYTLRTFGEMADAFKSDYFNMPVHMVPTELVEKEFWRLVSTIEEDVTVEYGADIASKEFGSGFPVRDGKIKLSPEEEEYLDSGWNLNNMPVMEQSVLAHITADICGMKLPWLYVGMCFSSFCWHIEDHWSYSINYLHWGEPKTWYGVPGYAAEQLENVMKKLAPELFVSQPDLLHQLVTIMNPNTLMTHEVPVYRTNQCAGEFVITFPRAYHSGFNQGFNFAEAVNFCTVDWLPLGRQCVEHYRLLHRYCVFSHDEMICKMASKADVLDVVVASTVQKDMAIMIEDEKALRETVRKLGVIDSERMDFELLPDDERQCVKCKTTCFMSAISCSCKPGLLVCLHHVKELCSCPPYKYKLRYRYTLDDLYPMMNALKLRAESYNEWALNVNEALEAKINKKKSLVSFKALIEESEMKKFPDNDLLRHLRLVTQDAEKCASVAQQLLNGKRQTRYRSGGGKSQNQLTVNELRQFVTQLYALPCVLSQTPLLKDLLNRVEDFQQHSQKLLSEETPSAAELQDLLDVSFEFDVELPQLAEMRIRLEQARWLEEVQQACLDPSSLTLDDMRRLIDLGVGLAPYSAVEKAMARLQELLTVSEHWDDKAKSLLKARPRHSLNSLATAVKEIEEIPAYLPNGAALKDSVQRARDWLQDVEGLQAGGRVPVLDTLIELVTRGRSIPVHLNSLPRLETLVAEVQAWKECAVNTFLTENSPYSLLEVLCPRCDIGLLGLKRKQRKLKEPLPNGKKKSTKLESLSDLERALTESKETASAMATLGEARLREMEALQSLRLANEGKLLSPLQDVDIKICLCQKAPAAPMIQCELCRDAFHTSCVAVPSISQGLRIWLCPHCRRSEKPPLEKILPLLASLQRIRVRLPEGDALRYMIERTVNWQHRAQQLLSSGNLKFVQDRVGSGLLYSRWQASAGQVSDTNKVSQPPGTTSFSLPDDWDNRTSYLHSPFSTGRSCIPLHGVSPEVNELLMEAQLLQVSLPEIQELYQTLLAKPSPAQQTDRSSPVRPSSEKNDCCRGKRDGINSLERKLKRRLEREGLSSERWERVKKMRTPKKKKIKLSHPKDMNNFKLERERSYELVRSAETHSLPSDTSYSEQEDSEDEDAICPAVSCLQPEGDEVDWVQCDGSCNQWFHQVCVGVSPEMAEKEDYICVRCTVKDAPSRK
How it was run: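 Compound dilutions met 200 nM (final) KDM5BΔAP for 10 min at room temperature before substrate addition. The substrate mix held 12.5 µM H3K4me3 with cofactors 25 µM α-ketoglutarate and 50 µM Fe²⁺. NADH signal gain over 30 min defined activity.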
`CN(C(=O)CSc1nncn2c1cc1occc12)c1ccccc1` was tested, and the Potency was inconclusive: 17.8 µM [inhibitor, partial curve, poor fit].
For `COc1ccc(Oc2cc(NC(=O)C3CCN(S(C)(=O)=O)CC3)ccc2OC)cc1`, the Potency was “inactive”.
For `COc1ccc(-c2cc3ccc(OCC(=O)OC(C)(C)C)cc3oc2=O)cc1OC`, the Potency was inconclusive: 14.1 µM [inhibitor, partial curve, poor fit].
`CCCOc1ccc(C(=O)N(Cc2ccc(Cl)cc2)Cc2ccco2)cc1` was tested, and the Potency was inconclusive: 15.8 µM [inhibitor, partial curve, poor fit].
With `CC(C)c1cc(CN(C)Cc2cn[nH]c2-c2ccc(F)cc2)no1` the Potency was active: 28.2 µM.
For `COc1cccc(-c2cc(C(=O)NCCc3cnc[nH]3)c3c(c2)N(C)CCO3)c1OC`, the Potency was active: 28.2 µM.
For `O=c1ccc(=O)n(-c2ccccc2)[nH]1`, the Potency was inconclusive: 39.8 µM [inhibitor, single point].
For `COc1ccc(CNC(=O)C[C@@H]2O[C@H](CNC(=O)NC(C)C)[C@@H](O)[C@H]2O)cc1`, the Potency was inconclusive: 22.4 µM [inhibitor, partial curve, poor fit].
In the case of `CCOC(=O)c1[nH]c2ccccc2c1NC(=O)CCN1CCCC(C)C1` (stereo not drawn), the Potency was inconclusive: 39.8 µM [inhibitor, single point].
In the case of `CC(C)[C@H](NC(=O)c1cc2cc(Cl)ccc2n1C)C(=O)N1CCC(C(=O)O)CC1`, the Potency was inconclusive: 28.2 µM [inhibitor, single point].
`CC(C)S(=O)(=O)N1CC(Oc2ccc(-c3noc(C4CCOCC4)n3)cc2)C1` was tested, and the Potency was “inactive”.
In the case of `CC(C)CCNC(=O)Cn1nc2c(cc1=O)CCCC2`, the Potency was “inactive”.
In the case of `Cc1ccc(-c2cc(C(=O)N3CCC(c4cc(CC(=O)O)[nH]n4)CC3)n[nH]2)o1`, the Potency was active: 25.1 µM.
In the case of `O=C(NCc1ccccc1)NC(NC(=O)c1cccnc1)(C(F)(F)F)C(F)(F)F`, the Potency was “inactive”.
For `COc1cc(NS(=O)(=O)c2cc(Br)cc3c2N(C(C)=O)C(C)C3)cc(OC)c1` (stereo not drawn), the activity change, negative = inhibition was inconclusive: -35.8% [inhibitor].
In the case of `Cc1cc(=O)oc2cc(OS(=O)(=O)c3ccc(F)cc3)ccc12`, the Potency was inconclusive: 39.8 µM [inhibitor, single point].
With `COC(=O)c1[nH]c2ccc(F)cc2c1NC(=O)c1ccccc1F` the Potency was “inactive”.
In the case of `O=C(Nc1ccc(Cl)cc1Cl)c1ccc2ncsc2c1`, the Potency was inconclusive: 31.6 µM [inhibitor, partial curve, poor fit].
For `Cn1cnc(S(=O)(=O)N2CC(N(C3CCOCC3)S(C)(=O)=O)C2)c1`, the Potency was “inactive”.
With `COc1ccc(-c2csc3ncnc(Nc4ccc(OC)cc4OC)c23)cc1` the Potency was inconclusive: 35.5 µM [inhibitor, partial curve, poor fit].
With `CN(C)C(=O)c1cc2c(s1)CCC(C(=O)N1CCN(c3cccc(Cl)c3)CC1)C2` (stereo not drawn) the Potency was “inactive”.
With `CN1CC(=O)N(C2CCNC2)Cc2c(NC3CCN(Cc4ccccc4)CC3)ncnc21` (stereo not drawn) the Potency was inconclusive: 44.7 µM [inhibitor, partial curve].
With `O=C(O)COCC(=O)N[C@H]1CCN2C(=O)c3ccc(Cl)cc3NC(=O)[C@H]12` the Potency was “inactive”.
`CCC1=C(C(=O)OC)C(c2cccc(F)c2)N2C(CC(=O)NCCc3cccs3)=CSC2=N1` (stereo not drawn) was tested, and the Potency was inconclusive: 28.2 µM [inhibitor, single point].
With `Cc1cc(C(=O)O)ccc1-c1ccc(/C=N/n2cnnc2)o1` the Potency was inconclusive: 35.5 µM [inhibitor, partial curve, poor fit].
With `CCC1CN(Cc2nc(CCOC)no2)CCC(=O)N1Cc1ccccc1` (stereo not drawn) the Potency was “inactive”.
With `CC(=O)Nc1ccc(NC(=O)c2cc(-c3ccncc3)cn2Cc2ccccc2C)cc1` the Potency was inconclusive: 39.8 µM [inhibitor, single point].
For `Cc1cc(NC(=O)c2cnn(-c3ccccc3)c2-n2cccc2)ccc1Br`, the Potency was inconclusive: 31.6 µM [inhibitor, partial curve, poor fit].
`Cc1c(Cl)cccc1NC(=O)N1CCN(C2=Nc3ccccc3Oc3ccccc32)CC1` was tested, and the Potency was “inactive”.
In the case of `COc1cccc(CNC(=O)N2CC(c3noc(-c4ccncc4)n3)C2)c1`, the Potency was “inactive”.
In the case of `NCCC(=O)N1CCCC1`, the Potency was “inactive”.
With `Cn1c(C(=O)NCc2ccccc2Cl)cc2sc(Cl)cc21` the Potency was inconclusive: 25.1 µM [inhibitor, single point].
In the case of `COCCOCC(=O)N1CCC2(CC1)c1[nH]c3ccccc3c1CCN2C`, the Potency was inconclusive: 31.6 µM [inhibitor, partial curve, poor fit].
With `CCOC(=O)C1=C(C)Nc2nc(SCc3cccc(C)c3)nn2C1c1cccs1` (stereo not drawn) the Potency was “inactive”.
In the case of `O=C(Nc1ccccc1F)c1cc(-c2ccco2)nc2ccccc12`, the Potency was inconclusive: 28.2 µM [inhibitor, partial curve, poor fit] and inconclusive: 25.1 µM [inhibitor, partial curve, poor fit].
With `CCCC(=O)N1CCC(N2CC3CC(C2)[C@H]2CCCC(=O)N2C3)CC1` (stereo partly drawn) the Potency was inconclusive: 10 µM [inhibitor, partial curve].
In the case of `Cc1nc(-c2cccc(F)c2)sc1CCNC(=O)Cc1ccc(F)cc1`, the Potency was inconclusive: 25.1 µM [inhibitor, partial curve, poor fit].
In the case of `O=C1CN(C(=O)CCC(=O)N2CCC(Cc3nncn3-c3ccccc3)CC2)c2ccccc2N1`, the Potency was inconclusive: 35.5 µM [inhibitor, partial curve, poor fit].
In the case of `Cc1ccc2c(=O)c(CN3CCCCCC3)c(C)[nH]c2c1C`, the Potency was inconclusive: 28.2 µM [inhibitor, single point].
With `COc1ccc(C(=O)N/C(=C\c2ccc(-c3cccc(C(F)(F)F)c3)o2)C(=O)NC(C)(C)C)cc1` the Potency was “inactive”.
For `CCC(=O)N1N=C(c2c(O)n(C)c(=O)n(C)c2=O)CC1c1ccccc1` (stereo not drawn), the Potency was inconclusive: 12.6 µM [inhibitor, partial curve, poor fit].
`CC(C)NC(=O)c1cccc2c1CCCN2CC(=O)NCCc1ccccc1` was tested, and the Potency was inconclusive: 39.8 µM [inhibitor, single point].
With `CCCNC(=O)Nc1ccccc1CC(N)=O` the Potency was “inactive”.
